Reference: the BET-seq Pho4 binding data (Le et al. 2018)
This is one part of the list. The energies were worked out here from pooled read counts, against the library average; single values are noisy.

These sequences were tested against T1, Pho4 (S. cerevisiae) (UniProt P07270) (assay: relative binding free energy (BET-seq); higher = weaker binding). Details: reference: library average.
T1 sequence: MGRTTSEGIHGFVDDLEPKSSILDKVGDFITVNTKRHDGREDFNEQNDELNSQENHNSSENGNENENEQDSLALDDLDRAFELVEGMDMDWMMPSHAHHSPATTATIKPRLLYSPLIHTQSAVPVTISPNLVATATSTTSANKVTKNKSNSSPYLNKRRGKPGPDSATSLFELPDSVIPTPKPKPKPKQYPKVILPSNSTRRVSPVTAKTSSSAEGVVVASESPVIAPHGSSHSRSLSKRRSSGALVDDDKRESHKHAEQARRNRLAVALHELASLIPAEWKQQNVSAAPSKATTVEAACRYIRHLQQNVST

Relative binding free energy, 0.418 kJ/mol:
GACGTCACGTGGGAGT, AAATGCACGTGCTTGT

Relative binding free energy, -0.92 kJ/mol:
TTAAGCACGTGGAGGT, CGCGGCACGTGGTGAG, TGAGGCACGTGGCGAT

Relative binding free energy, 0.879 kJ/mol:
AAGGGCACGTGAAGCG, AGAATCACGTGAGTGT

Relative binding free energy, 1.67 kJ/mol:
GTCTTCACGTGTTTTT

Relative binding free energy, -0.795 kJ/mol:
TGAGGCACGTGACTGT, CGTTGCACGTGGGGAC

Relative binding free energy, 0.209 kJ/mol:
TGACGCACGTGTATTT

Relative binding free energy, 0.711 kJ/mol:
CGTGGCACGTGAAGGA, AAAGTCACGTGTGAGG, AGAGACACGTGATGTG, GTGGTCACGTGTATGA

Relative binding free energy, 1.51 kJ/mol:
TTTATCACGTGAAATA

Relative binding free energy, 0.586 kJ/mol:
TGTCTCACGTGTGCGG, CGTTTCACGTGGGATA, TGCGGCACGTGTAAAT, TGGGTCACGTGTTTGG, ATCTGCACGTGATGTA

Relative binding free energy, -0.126 kJ/mol:
TTAAGCACGTGTCGAT, AGTGACACGTGTCTGT, AGTATCACGTGGCGTT, GTAAGCACGTGTTGTG, ATTGGCACGTGTTGTC, TTTGTCACGTGCACTG

Relative binding free energy, 0.795 kJ/mol:
GAGGGCACGTGAAGAT, AATATCACGTGGAAGG

Relative binding free energy, 1.05 kJ/mol:
GGGTCCACGTGATAGG, TGGCTCACGTGTAGCT, AATTTCACGTGGTTGT, TGTTTCACGTGCCGCT

Relative binding free energy, 1.3 kJ/mol:
GTATTCACGTGATATG, AGGTTCACGTGAAAGT

Relative binding free energy, 1.55 kJ/mol:
GGTATCACGTGATGCT, TTATTCACGTGTTCCT

Relative binding free energy, -0.209 kJ/mol:
TATGTCACGTGTAATA, TAGATCACGTGGGTAT, TCGAACACGTGGTGTG

Relative binding free energy, 1 kJ/mol:
GCGTTCACGTGATGTA, CAGGTCACGTGTCGGG

Relative binding free energy, 1.97 kJ/mol:
GAGTTCACGTGAGTAG

Relative binding free energy, -1.05 kJ/mol:
CGCGGCACGTGGGGTC

Relative binding free energy, 0.167 kJ/mol:
ATTATCACGTGGGTAC, TGGGTCACGTGCGTAG, GTGTCCACGTGGTGGC, TCATACACGTGTGTGG, TGTTACACGTGGTTCA, ATTTGCACGTGTGAGC, GGGTGCACGTGTGCTG

Relative binding free energy, 0.126 kJ/mol:
CATAACACGTGGTTTA, AGTTGCACGTGATCAG, CAAAGCACGTGTGTTG, TGGGACACGTGATAGA, GAACGCACGTGCGGTG, TCTGTCACGTGTTATG

Relative binding free energy, 0.628 kJ/mol:
AAGTTCACGTGGAGTG, AAGGTCACGTGTATGT, TGTATCACGTGTGTTG, GAGATCACGTGGGGTA, TGTTTCACGTGCATGG, TGCGGCACGTGAATGG

Relative binding free energy, 1.13 kJ/mol:
ATTCTCACGTGTTGTT, GCGTTCACGTGTAGTG, GCTTGCACGTGAGGGT, TGTTTCACGTGCGGCA, TTTATCACGTGTGGCT

Relative binding free energy, -0.628 kJ/mol:
GTGGCCACGTGGAGGC, ATTGACACGTGGGATA, CGGAGCACGTGGTAGT

Relative binding free energy, 0.92 kJ/mol:
TGAGACACGTGGAATT, TGAATCACGTGAGTTG, AGTCACACGTGGTGGT, GGTGACACGTGTGAAA, TTGGACACGTGAAGTT, AAAGTCACGTGTACGT, AGCTTCACGTGATTGT, TCAGTCACGTGTAATT

Relative binding free energy, -0.586 kJ/mol:
GTCGGCACGTGGTGTG, GAGAGCACGTGCGGTT, TTTTGCACGTGGGGTA, TATACCACGTGTTTGG

Relative binding free energy, -1.3 kJ/mol:
AGGTGCACGTGCTTAG

Relative binding free energy, 1.63 kJ/mol:
GTATTCACGTGTGCGT

Relative binding free energy, -0.251 kJ/mol:
GCGTGCACGTGTGCTG, AGGGCCACGTGTGGTA, CGGGGCACGTGTGGGA, GTGGGCACGTGGTGTC, TATGGCACGTGTGCTC, AGTGCCACGTGTTAGT, TAAGTCACGTGTGTAG

Relative binding free energy, -0.335 kJ/mol:
CGATACACGTGGTGTA, ATAGGCACGTGGAGGC, TCAGGCACGTGGAGGA

Relative binding free energy, 1.42 kJ/mol:
TTCGTCACGTGATTGG, CATTTCACGTGATGGG, TGGATCACGTGAGGTG, GTTTTCACGTGCCGGG

Relative binding free energy, 0 kJ/mol:
GTAAACACGTGGGAGT, CGGGGCACGTGGAGAT, TGTAGCACGTGTAGTG

Relative binding free energy, -0.502 kJ/mol:
GGTTGCACGTGGGTCA, GTAGGCACGTGGGTTT, GGCAGCACGTGTGTAG

Relative binding free energy, 1.59 kJ/mol:
GTATTCACGTGCCGTG, TGATTCACGTGACGGG, TGGTACACGTGAGGAT

Relative binding free energy, 1.46 kJ/mol:
CTATTCACGTGATTTG, ACGTTCACGTGGTTCG

Relative binding free energy, -0.879 kJ/mol:
GCAAGCACGTGGGAGT, ATGAGCACGTGGGAGA

Relative binding free energy, 2.3 kJ/mol:
GAATTCACGTGAAGTA

Relative binding free energy, 0.962 kJ/mol:
ATATTCACGTGTGGTG, TTTTACACGTGTTTTT, TTCTTCACGTGGTGGC, TAATTCACGTGATGAT, GAGTTCACGTGTTGGC, TTGTTCACGTGCGTAT

Relative binding free energy, -1 kJ/mol:
AAACGCACGTGGGGTG

Relative binding free energy, -0.377 kJ/mol:
TCGTGCACGTGTTATA

Relative binding free energy, 1.38 kJ/mol:
GTATTCACGTGGAAGT

Relative binding free energy, 0.335 kJ/mol:
TCTATCACGTGTATTG, TAGGTCACGTGTCTGA, GGTATCACGTGCTTTG

Relative binding free energy, 1.17 kJ/mol:
CGGCTCACGTGTTGGG, GATGTCACGTGATCTT, TAGACCACGTGAGGTG, GGCTTCACGTGCGGTG, GGAGGCACGTGAAAGT

Relative binding free energy, -0.837 kJ/mol:
GCGAGCACGTGGTGGG

Relative binding free energy, -0.0837 kJ/mol:
GGTCGCACGTGGTTTT, GTATGCACGTGCATGT, GTGGACACGTGACAGG, TTCTACACGTGTTGAT, TATTGCACGTGTGCAT, AGTGGCACGTGGAGCC

Relative binding free energy, -0.293 kJ/mol:
AAGAGCACGTGTTGGT, AGCGGCACGTGTTAGT, TATTCCACGTGGGTGC, TGGTGCACGTGCGACG, TGTTACACGTGTAGCA, GTATGCACGTGTTTTA, AGTACCACGTGTTGGA, TAAAGCACGTGTATTA, CTTAGCACGTGTAGGG

Relative binding free energy, 0.251 kJ/mol:
GGGGGCACGTGTTACT, TGAAGCACGTGATTGG

Relative binding free energy, -0.544 kJ/mol:
ATATGCACGTGTGCTG, TTTAACACGTGCGTTT

Relative binding free energy, 0.377 kJ/mol:
TTTGGCACGTGTGGAA, GTCGTCACGTGCGTTT

Relative binding free energy, 1.21 kJ/mol:
TGTTACACGTGAAGTA, GTTTTCACGTGGACGG, GGTCGCACGTGAGGCG, TCACTCACGTGTGGGA

Relative binding free energy, 1.26 kJ/mol:
GGTTTCACGTGTTAGA

Relative binding free energy, 0.837 kJ/mol:
TTGTACACGTGACGGA, GTTATCACGTGTGGTC, AGACTCACGTGTGGTG, TTCGTCACGTGTATTT, GGCCGCACGTGAAGGG, ACATTCACGTGGGGCT

Relative binding free energy, 2.05 kJ/mol:
TGTTTCACGTGAAAAA

Relative binding free energy, 0.0418 kJ/mol:
AGTAACACGTGTGATG, TTTGGCACGTGATGTC, CTATACACGTGTGTGG, GGGAACACGTGTTATT

Relative binding free energy, 1.88 kJ/mol:
GATTTCACGTGCCTTT, AAGTTCACGTGAGTGC

Relative binding free energy, 0.46 kJ/mol:
TAAGTCACGTGTATTG

Relative binding free energy, -0.46 kJ/mol:
AGCAGCACGTGCGTGG

Relative binding free energy, 1.72 kJ/mol:
GGTTTCACGTGTAAGA

Relative binding free energy, -1.17 kJ/mol:
TCTAGCACGTGGGAGT

Relative binding free energy, 0.0837 kJ/mol:
CTTAACACGTGTGTTT, TTGTACACGTGCTTTT, GTAGACACGTGGAGGG, GGTCGCACGTGGATCG, AATGGCACGTGTTAAG

Relative binding free energy, -0.753 kJ/mol:
TTGGGCACGTGCGTGA, CATAGCACGTGTTGTG, ATGTGCACGTGGGCAA, TTTAACACGTGGGTCT, GTTGGCACGTGGGCAT

Relative binding free energy, 0.502 kJ/mol:
AGAATCACGTGTGGTA, AAGGTCACGTGTTTTA, AGGTGCACGTGAAAGG

Relative binding free energy, 1.34 kJ/mol:
AGAGTCACGTGATTAA

Relative binding free energy, 0.669 kJ/mol:
AGGCACACGTGTTGGA, GGTTGCACGTGATATA, TGAGTCACGTGTAGTA

Relative binding free energy, 0.753 kJ/mol:
GATGTCACGTGGTCCG, ATATGCACGTGAGTAG, GTGGACACGTGAACGG, GGAGTCACGTGTGGTA, GTCAACACGTGAGTGG, AATTTCACGTGGCGTG

Relative binding free energy, 0.544 kJ/mol:
GGGTGCACGTGGAAAG, TTATACACGTGTGTGG, TGAGGCACGTGAGGGG

Relative binding free energy, -0.711 kJ/mol:
TGCAGCACGTGGTGTC, ATTAGCACGTGGGTTA, CGATGCACGTGGGTAA, ATAGGCACGTGGTGTT, AGGGCCACGTGGTTGC, TGGTGCACGTGGGACG

Relative binding free energy, 2.18 kJ/mol:
TGTCTCACGTGAGTAA

Relative binding free energy, -0.167 kJ/mol:
CTGTGCACGTGGTCGT, GTGGCCACGTGTTGCT, TGTTGCACGTGACTGA

Relative binding free energy, -0.0418 kJ/mol:
TAGGTCACGTGGGCAT, GGTGGCACGTGTTGCG, TACGTCACGTGTTGTA, GGGACCACGTGTGGTA, AGTGGCACGTGTATTG, TGTTACACGTGCTGTA, GTAGTCACGTGGATTG, GTGTGCACGTGGACGG

Relative binding free energy, -0.669 kJ/mol:
CTTAGCACGTGGTGGT, CATGGCACGTGATGTG, TTGCGCACGTGTTGCG

Relative binding free energy, 0.293 kJ/mol:
AATATCACGTGTTAAT, GCGTACACGTGTGGAG, AAGTTCACGTGGGGCA, TTTTACACGTGGACTA, CGTGTCACGTGTTTGA, TGAGGCACGTGAGCTG, AGTATCACGTGTGAGA, GGGAGCACGTGCAGTG, TCTGGCACGTGTGGCC
